Reference: US20240317847A1 (Bayer, published 2024)

Assays:
[1] = target: T1, human IL2Ra (human, UniProt P01589 22-240, limits assumed); assay: ELISA on coated IL2Ra, signal ratio to isotype control TPP-10159 at 3.3E-7 M antibody
T1 construct: coated on the ELISA plate; also called IL-2 receptor alpha
T1 sequence (looked up): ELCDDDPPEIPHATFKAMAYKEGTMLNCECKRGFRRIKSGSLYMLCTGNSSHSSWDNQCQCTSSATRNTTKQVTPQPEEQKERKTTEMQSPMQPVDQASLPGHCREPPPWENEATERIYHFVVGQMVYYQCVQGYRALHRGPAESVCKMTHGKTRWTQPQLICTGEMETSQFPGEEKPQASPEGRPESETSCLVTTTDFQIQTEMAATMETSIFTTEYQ
Description: IL2RA (Peprotech, Germany, #200-02RC) was coated at 1 or 0 μg/ml (buffer only control) in 30 μl coating buffer (Candor, #113500) per well on a 384 well microtiter plate (Maxisorb, Nunc, #460518) over night at 4-8° C. After two washes with 50 μl/well washing buffer (PBS+0.05% Tween, pH 7.4), the plates were incubated for two hours at room temperature with 50 μl/well SmartBlock (Candor, #113500). After blocking, the plates were washed three times with washing buffer. Then, a dilution series of the respective antibody (1E-7 [M] down to 2E-13 [M]) in PBS+0.05% Tween, 10% SmartBlock were added in 30 μl to the microtiter plate and incubated for 90 min at room temperature. After three additional washes, 30 μl anti mouse IgG HRP-conjugated antibody (Biotechne, HAF007), diluted 1:1000 in PBS+0.05% Tween (pH 7.4), were added per well and incubated for one hour. […] Relative fluorescence was measured with a microtiter plate reader at 535/590 nm.
IgG converted antibodies TPP-were tested for binding to IL2Ra as described in Example 20. The ratios of the signals obtained at an antibody concentration of 3.3E-7 [M] for IgG converted antibody versus the isotype control TPP-10159 were calculated and are shown in Table E22.

[2] = target: T2, human IL-11 (human, UniProt P20809 22-199); assay: Tri-complex ELISA, hIL-11 + mIL-11Ra-Fc + hgp130-Fc, inhibition of complex formation
T2 construct: Invigate recombinant protein; biotinylated when immobilized in the Di-complex ELISA; also called hIL11; hIL-11
T2 sequence: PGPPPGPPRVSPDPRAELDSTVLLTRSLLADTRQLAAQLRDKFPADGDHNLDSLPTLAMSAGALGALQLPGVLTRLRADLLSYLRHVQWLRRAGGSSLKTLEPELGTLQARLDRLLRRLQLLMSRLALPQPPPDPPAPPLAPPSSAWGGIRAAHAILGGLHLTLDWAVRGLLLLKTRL

- Antibody/Isotype Control Ratio of IL-2Ra Binding Signals [1]: 1.1 ratio
- Efficacy (%) [2]: 98.7%
- IC50 [2]: 1 nM
B1: TPP-29536 (antibody, human IgG1, lambda)
heavy: EVQLLESGGGLVQPGGSLRLSCAASGFTFSSYGMHWVRQAPGKGLEWVAVISYDGSYKYYADSVKGRFTISRDNSKNTLYLQMNSLRAEDTAVYYCAAGVPDYWGQGTLVTVSSASTKGPSVFPLAPSSKSTSGGTAALGCLVKDYFPEPVTVSWNSGALTSGVHTFPAVLQSSGLYSLSSVVTVPSSSLGTQTYICNVNHKPSNTKVDKKVEPKSCDKTHTCPPCPAPPVAGPSVFLFPPKPKDTLMISRTPEVTCVVVGVSHEDPEVKFNWYVDGVEVHNAKTKPREEQYNSTYRVVSVLTVLHQDWLNGKEYKCKVSNKQLPSPIEKTISKAKGQPREPQVYTLPPSRDELTKNQVSLTCLVKGFYPSDIAVEWESNGQPENNYKTTPPVLDSDGSFFLYSKLTVDKSRWQQGNVFSCSVMHEALHNHYTQKSLSLSPGK
light: QSVLTQPPSASGTPGQRVTISCSGSSSNIGSDYDVHWYQQLPGTAPKLLIYSNEERPSGVPDRFSGSKSGTSASLAISGLRSEDEADYYCSAWDSSLSGPVFGGGTKLTVLGQPKAAPSVTLFPPSSEELQANKATLVCLISDFYPGAVTVAWKADSSPVKAGVETTTPSKQSNNKYAASSYLSLTPEQWKSHRSYSCQVTHEGSTVEKTVAPTECS
notes: hIgG-lambda-HS (human IgG1 with Fc-silencing mutations)
